# Assay results: PubChem BioAssay AID463173 (ICCB-Longwood Screening Facility, Harvard Medical School, 2010)
# Hit rate of the full screen: of about 52,000 compounds, about 4,300 (8.3%) were called active. Cut-off read from the data, not from the text of the source: active = survival mostly below about 52% (no sharp cut-off); inactive = mostly above about 56%. Some of the results follow.
# System: DeltatarO mutant
# Experiment: S. aureus survival, RN4220 and DeltatarO strains – OD600, teichoic acid synthesis inhibitors, primary screen (AID 463173)
# Conditions: S. aureus RN4220 wild type/DeltatarO growth, OD600, 18 h, active compounds read low, screened at 18.75 µg/mL (by protocol)
row,Structure (SMILES),survival
1,CC(C)NC(=O)c1ccc2c(c1)N(Cc1cccc(Cl)c1)C(=O)c1ccccc1S2=O (stereo not drawn),inactive: 55%
2,CCc1ccccc1NS(=O)(=O)c1ccc2c(c1)CCCN2C(=O)C1CCC1,inactive: 98%
3,Cc1nn2c(=O)cc(COC(=O)c3ccccc3NC(=O)c3cccs3)nc2s1,inactive: 74%
4,COC(=O)c1sc2c(c1C)c(=O)n(-c1ccccc1)c(=O)n2CC(=O)Nc1cccc(C)c1,inactive: 67%
5,Cc1ccc(C)c(NC(=O)CCOc2ccccc2)c1,inactive: 77%
6,Cc1ccc2nc(-c3ccc(F)cc3)c(NC(C)(C)CC(C)(C)C)n2c1,active: 12%
7,Nc1cccc(NC(=O)CCC(=O)NCc2ccco2)c1,inactive: 68%
8,Cc1c(Cl)cccc1NC(=O)CSc1ccc(-c2ccccn2)nn1,inactive: 108%
9,COc1cccc(Nc2cc(C)nc3ccccc23)c1,inactive: 109%
10,COc1cccc(CNC(=O)c2c(C)oc3ncnc(N4CCOCC4)c23)c1,inactive: 87%
11,COc1ccc(N2CCN(C(=O)C3Cc4ccccc4N3C(C)=O)CC2)cc1 (stereo not drawn),inactive: 82%
12,CCOc1cc(CNC(=O)C2CCN(c3nc4ccccc4[nH]3)CC2)cc(OCC)c1OCC,active: 20%
13,COc1cccc(CC(=O)Nc2ccc(-c3nc4ccccc4s3)cc2Cl)c1,inactive: 69%
14,Cc1cc(C)cc(N2CCn3c2nc2c3c(=O)n(C/C=C/c3ccccc3)c(=O)n2C)c1,inactive: 92%
15,Cc1cc(C)c2nc(N3CCCC(C(=O)NCc4ccccc4F)C3)sc2c1 (stereo not drawn),inactive: 102%
16,Cc1ccc(C(=O)NC2CC(C)(C)NC(C)(C)C2)cc1,inactive: 64%
17,CCOC(=O)N1CCN(C(=O)Cc2cccc3ccccc23)CC1,inactive: 94%
18,CCn1c(=O)n(-c2ccc3c(c2)OCO3)c2nc(-c3cccc(OC)c3OC)nc(C(N)=O)c21,inactive: 92%
19,O=C1N/C(=N\S(=O)(=O)Cc2ccccc2)S/C1=C\c1ccco1,inactive: 78%
20,COc1ccc(N2CCN(C(=O)c3ccc4c(c3)N(Cc3cccc(Cl)c3)C(=O)c3ccccc3S4(=O)=O)CC2)cc1,inactive: 83%
21,Cc1ccccc1C(=O)Nc1cc2c(cc1N1CCCCC1)n(C)c(=O)n2C,inactive: 66%
22,O=C(NCc1cccc(Cl)c1)c1cc2c(s1)-c1ccccc1SC2,inactive: 64%

row,Structure (SMILES),survival
1,O=C(Cn1c(=O)n(-c2ccc(Cl)cc2)c(=O)c2c3c(sc21)CCCCC3)Nc1cccc(Cl)c1,inactive: 84%
2,Cc1ccc2cccc(NC(=O)c3cccc4c(Br)cccc34)c2n1,inactive: 134%
3,COc1cccc(CNS(=O)(=O)c2ccc3c(c2)CC(C)N3C(=O)C2CCC2)c1 (stereo not drawn),inactive: 78%
4,CN(C)S(=O)(=O)c1ccc(/C(O)=C2\C(=O)C(=O)N(Cc3cccnc3)C2c2cccnc2)cc1 (stereo not drawn),inactive: 104%
5,COc1ccc(C)cc1NC(=O)C(=O)NCC(c1cccnc1)N1CCN(c2ccccc2F)CC1 (stereo not drawn),inactive: 52%
6,COc1cccc(NC(=O)C2CCN(S(=O)(=O)c3c(C)noc3C)CC2)c1,inactive: 102%
7,Cc1ccc(C(=O)COC(=O)c2cc(-c3cccs3)nc3ccccc23)cc1,inactive: 50%
8,CCc1cccc(NC(=O)Nc2cn(C)c(=O)c3ccccc23)c1,inactive: 88%
9,Cc1ccc(S(=O)(=O)c2cn(CC(=O)Nc3ccc(F)cc3)c3cc4c(cc3c2=O)OCO4)cc1,inactive: 72%
10,COc1ccc(-c2noc(CCC(=O)Nc3cccc(C)c3C)n2)cc1OC,inactive: 69%
11,CCc1ccccc1NC(=O)Cn1c(=O)n(-c2cccc(C)c2)c(=O)c2c1c1cc(OC)ccc1n2C,inactive: 72%
12,CC(C)OCCCNC(=O)Cc1ccc(NC(=O)N2CCCCc3ccccc32)cc1,inactive: 78%
13,CCOc1ccccc1N(C)C(=O)c1cc2c(s1)-c1ccccc1OC2,active: -2%
14,S=C(NCCN1CCCCC1)Nc1ccccc1,inactive: 82%
15,COc1ccccc1NC(=O)CC1S/C(=N\N=C(/C)c2ccccc2)NC1=O (stereo not drawn),inactive: 86%
16,CCOC(=O)CC(NC(=O)c1cc2c(=O)n3cccc(C)c3nc2s1)c1ccc(OCC)c(OC)c1 (stereo not drawn),inactive: 159%
17,CCN(CCCNC(=O)c1nn(-c2ccc(C)cc2)c(=O)c2c1c1ccccc1n2C)c1cccc(C)c1,inactive: 76%
18,Cc1ccc(CNC(=O)c2ccc(N3CCCC3)c(NC(=O)Nc3ccc(F)c(Cl)c3)c2)cc1,inactive: 85%
19,Cc1ccc2c(c1)-c1c(c(C(=O)N3CCN(c4cc(C)ccc4C)CC3)nn1C)CS2,inactive: 69%
20,CCn1c(=O)cc(OCC(=O)N2CCN(c3cccc(C)c3C)CC2)c2ccccc21,inactive: 123%
21,Cc1cccc(NC(=O)CN2C(=O)C(c3ccc(F)cc3)=NC23CCCCCC3)c1,inactive: 87%
22,COc1cccc(CNC(=O)CN2C(=O)COc3ccc(S(=O)(=O)N4CCOCC4)cc32)c1,inactive: 94%

row,Structure (SMILES),survival
1,COc1ccc(NC(=O)Cn2c(=O)c3ccccc3n3nncc23)c(OC)c1,inactive: 96%
2,CC(=O)c1c(C)oc2c1cc(NS(=O)(=O)c1ccc(C(C)(C)C)cc1)c1ccccc12,inactive: 64%
3,Cc1cc(C)c(NC(=O)Cn2c(=O)n(Cc3ccc(C(=O)NCc4ccc5c(c4)OCO5)cc3)c(=O)c3ccccc32)c(C)c1,inactive: 82%
4,Cc1ccc(CNC(=O)C(C)n2nc(C)c3sc4ccccc4c3c2=O)cc1 (stereo not drawn),inactive: 99%
5,COC(=O)c1ccc(NC(=O)CN(C)S(=O)(=O)c2ccc(Br)s2)cc1,inactive: 73%
6,COc1cccc(-n2c(SCc3ccc(F)cc3)nc3c([nH]c4ccccc43)c2=O)c1,inactive: 103%
7,Cc1ccc2nc(-c3ccc(Cl)s3)c(Nc3ccc4c(c3)OCCO4)n2c1,inactive: 91%
8,Cc1nn2c(C)c(C(=O)NCc3ccc(OC(C)C)cc3)cnc2c1-c1ccc(F)cc1,inactive: 87%
9,COc1ccc(Cn2ccnc2SCC(=O)Nc2nnc(C)s2)cc1,inactive: 115%
10,O=C(Oc1ccccc1)c1ccc2nccnc2c1,inactive: 83%
11,O=C(CNS(=O)(=O)c1ccc(Cl)cc1)NN=C1CCCCC1,inactive: 92%
12,CCOc1ccccc1NC(=O)c1ccc(F)c(S(=O)(=O)N2CCN(c3ccc(F)cc3)CC2)c1,inactive: 76%
13,CCOc1ccc(C(=O)NCC(c2cccs2)S(=O)(=O)c2ccccc2)cc1 (stereo not drawn),inactive: 97%
14,CCOc1ccc(C(=O)NCCSc2c(C)[nH]c3ccccc23)cc1OCC,inactive: 56%
15,CCOc1ccc(NC(=O)c2cc(C)nc3c2c(C)nn3-c2ccc(C)cc2)cc1,inactive: 124%
16,Cc1cccc(C(=O)N2CCc3cc(CNC(=O)CSc4ccccc4)ccc32)c1,inactive: 77%
17,COc1cccc(C(=O)Oc2c(Sc3ccc(C)cc3)c(C)nn2C(C)(C)C)c1OC,active: 21%
18,COC(=O)c1ccccc1NC(=O)CN1C(=O)COc2ccc(Cl)cc21,active: 38%
19,COc1ccc(NC(=O)c2cc(S(=O)(=O)N3CCCC3)ccc2OC)cc1,inactive: 91%
20,CC(C)Cc1nn2c(=O)cc(COC(=O)c3ccc(NC(=O)C4CCCCC4)cc3)nc2s1,inactive: 73%
21,Clc1ncnc2c1oc1ccccc12,inactive: 107%
22,CCOc1cccc(CC(=O)N2CCc3c([nH]c4ccc(OC)cc34)C2c2ccc(F)cc2)c1OCC (stereo not drawn),inactive: 79%

row,Structure (SMILES),survival
1,O=C(COc1ccc(Cl)cc1)Nc1nnc(S(=O)(=O)N2CCCCCC2)s1,active: 55%
2,Cc1ccc(S(=O)(=O)n2nc(C)c(S(=O)(=O)N3CCCCCC3)c2C)cc1C,inactive: 80%
3,Cc1ccn2c(Nc3ccc4c(c3)OCCO4)c(-c3ccccc3O)nc2c1,inactive: 70%
4,CCCCOc1ccc(C2C(C(=O)Nc3ccccc3OC)=C(C)Nc3nnnn32)cc1OC (stereo not drawn),inactive: 85%
5,CC(=O)N1CCCc2cc(S(=O)(=O)N3CCC(C(=O)Nc4ccc(C)cc4Cl)CC3)ccc21,inactive: 68%
6,CCN(CC)CCCNC(=O)CCC(=O)NNc1nc2ccccc2c2nc(C)nn12,inactive: 94%
7,COc1ccccc1N1CCN(C(CNC(=O)C(=O)NCc2cccnc2)c2cccnc2)CC1 (stereo not drawn),inactive: 71%
8,CCOC(=O)c1c(NC(=O)c2cc(-c3ccc(OC)c(OC)c3)on2)sc(C)c1C,active: 42%
9,O=C1c2ccccc2-c2n[nH]c(=S)nc21,inactive: 64%
10,COc1ccccc1CNC(=O)c1cc2c(s1)-c1ccc(Cl)cc1SC2,inactive: 79%
11,Cc1ccccc1CNC(=O)CSc1nnc(C)c2c(C)n(-c3ccccc3)nc12,inactive: 117%
12,CCc1cc2c(=O)[nH]cnc2s1,inactive: 99%
13,CC(C)c1ccc(NS(=O)(=O)c2cc(Br)cc3c2N(C(=O)C2CC2)CC3)cc1,inactive: 56%
14,Cn1cnc(S(=O)(=O)N2CCCC(C(=O)NCc3ccc(F)cc3)C2)c1 (stereo not drawn),inactive: 55%
15,COc1ccc(OC)c(-c2noc(N3CCN(c4ccc(Cl)cc4)CC3)n2)c1,inactive: 88%
16,Cc1cc(C)cc(NS(=O)(=O)c2ccc3[nH]cc(C(=O)NCCc4ccccc4)c(=O)c3c2)c1,inactive: 72%
17,CCOc1ccc(NC(=O)C(=O)NCCc2csc(-c3ccc(C(F)(F)F)cc3)n2)cc1,inactive: 94%
18,Cc1ccc(C(=O)N2CCn3c4c(c5cc(C)ccc53)CCCC42)cc1 (stereo not drawn),active: -1%
19,COc1ccc(CCNC(=O)c2ccc3c(c2)N(Cc2ccccc2)CCS3)cc1OC,inactive: 76%
20,CCn1c(-c2ccccc2)cnc1SCC(=O)c1sc2c(c1C#N)CCCC2,inactive: 87%
21,Cc1cc(NC(=O)Nc2nnc(N3CCCCCC3)s2)ccc1Br,inactive: 83%
22,Cc1ccc(-c2nn(-c3ccccc3)c3c2cnc2ccccc23)cc1C,inactive: 68%
